US20140105855A1 (published 2014)

Columns and labels:
[1] = biological target: T1, preformed IL-17RC-IL-17A complex (IL-17A captured by immobilised IL-17RC) (UniProt Q8NAC3 21-538; Q16552 24-155, biotin on the C-terminal BirA ligase tag); experiment: SPR, second receptor injected over IL-17A captured on immobilised IL-17RC
T1 construct: extracellular domain;mature; One receptor with one cytokine dimer, assembled stepwise on the SPR chip; also called existing IL-17RC-IL-17A complex; not shown: C-terminal BirA ligase tag
From the text: This strategy involved immobilizing one receptor on a SPR chip at a low coupling density in order to minimize possible homo-dimerization (e.g. cross-linking) of the receptors on the chip. The dimeric IL-17 cytokine was then captured by this receptor so that each receptor would be bound to one dimeric IL-17 ligand, leaving an exposed and accessible second receptor-binding site. The second receptor was subsequently passed over the preformed receptor-cytokine complexes to measure the affinity of the second receptor-binding event. In this fashion, the complex was assembled in a stepwise manner and each of the binding affinities was measured (FIG. 3).
Binding affinities were calculated via surface plasmon resonance (SPR) on a Biacore® T100 (GE Healthcare). C-terminally biotinylated IL-17 receptors were coupled to immobilized streptavidin on either an SA or CM4-sensor chip (GE Healthcare). An irrelevant, biotinylated protein was captured at equivalent immobilization densities to control flow cells. To measure the second receptor binding interaction, the cytokine was first captured to the immobilized receptor, followed by the second receptor injection. Low coupling densities (200-400 RU) and excess cytokine concentrations were used to optimize the number of cytokine homodimers bound to a single receptor. […] Data was analyzed using Biacore® T100 evaluation software Version 2.0 (GE Healthcare). […]

IL-17A = biological target: T2, IL-17A (UniProt Q16552 24-155, limits assumed); experiment: SPR, biotinylated receptor on streptavidin chip, cytokine injected
T2 construct: mature; The form 'mature' is inferred from secretion; also called interleukin-17; CTLA-8
Method: Binding affinities were calculated via surface plasmon resonance (SPR) on a Biacore® T100 (GE Healthcare). C-terminally biotinylated IL-17 receptors were coupled to immobilized streptavidin on either an SA or CM4-sensor chip (GE Healthcare). An irrelevant, biotinylated protein was captured at equivalent immobilization densities to control flow cells. To measure the second receptor binding interaction, the cytokine was first captured to the immobilized receptor, followed by the second receptor injection. Low coupling densities (200-400 RU) and excess cytokine concentrations were used to optimize the number of cytokine homodimers bound to a single receptor. The surface was regenerated using 3 M MgCl2 between each cycle. For kinetic experiments, a flow rate of 50 μl/min was used. Data was analyzed using Biacore® T100 evaluation software Version 2.0 (GE Healthcare). Affinities are reported as the mean of at least two independent experiments±the standard error of the mean (s.e.m.).

Kd [1]: 0.162 µM
Kd (IL-17A): 0.0028 µM
B1: IL-17RA extracellular domain (ECD) (receptor)
chain: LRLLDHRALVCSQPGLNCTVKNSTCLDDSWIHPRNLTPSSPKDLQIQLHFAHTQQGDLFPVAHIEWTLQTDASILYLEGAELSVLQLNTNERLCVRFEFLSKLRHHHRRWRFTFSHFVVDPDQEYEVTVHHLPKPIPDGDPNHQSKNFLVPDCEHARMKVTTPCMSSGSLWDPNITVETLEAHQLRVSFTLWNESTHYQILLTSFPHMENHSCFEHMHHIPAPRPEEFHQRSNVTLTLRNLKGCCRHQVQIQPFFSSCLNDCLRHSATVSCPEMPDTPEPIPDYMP
